# Assay results as given in article PMC4336329 (PLoS ONE, 2015).
# About 2,200 (0.71%) of roughly 310,000 compounds showed an effect of 50% or more. The effect is printed as a negative number. The list shows a part of the results.
# Molecular target: human ether-à-go-go-related gene (hERG) potassium channel (human, UniProt Q12809)
# Experiment: primary screen, population patch clamp on CHO cells stably expressing hERG
# human ether-à-go-go-related gene (hERG) potassium channel, sequence (Q12809 whole entry, looked up): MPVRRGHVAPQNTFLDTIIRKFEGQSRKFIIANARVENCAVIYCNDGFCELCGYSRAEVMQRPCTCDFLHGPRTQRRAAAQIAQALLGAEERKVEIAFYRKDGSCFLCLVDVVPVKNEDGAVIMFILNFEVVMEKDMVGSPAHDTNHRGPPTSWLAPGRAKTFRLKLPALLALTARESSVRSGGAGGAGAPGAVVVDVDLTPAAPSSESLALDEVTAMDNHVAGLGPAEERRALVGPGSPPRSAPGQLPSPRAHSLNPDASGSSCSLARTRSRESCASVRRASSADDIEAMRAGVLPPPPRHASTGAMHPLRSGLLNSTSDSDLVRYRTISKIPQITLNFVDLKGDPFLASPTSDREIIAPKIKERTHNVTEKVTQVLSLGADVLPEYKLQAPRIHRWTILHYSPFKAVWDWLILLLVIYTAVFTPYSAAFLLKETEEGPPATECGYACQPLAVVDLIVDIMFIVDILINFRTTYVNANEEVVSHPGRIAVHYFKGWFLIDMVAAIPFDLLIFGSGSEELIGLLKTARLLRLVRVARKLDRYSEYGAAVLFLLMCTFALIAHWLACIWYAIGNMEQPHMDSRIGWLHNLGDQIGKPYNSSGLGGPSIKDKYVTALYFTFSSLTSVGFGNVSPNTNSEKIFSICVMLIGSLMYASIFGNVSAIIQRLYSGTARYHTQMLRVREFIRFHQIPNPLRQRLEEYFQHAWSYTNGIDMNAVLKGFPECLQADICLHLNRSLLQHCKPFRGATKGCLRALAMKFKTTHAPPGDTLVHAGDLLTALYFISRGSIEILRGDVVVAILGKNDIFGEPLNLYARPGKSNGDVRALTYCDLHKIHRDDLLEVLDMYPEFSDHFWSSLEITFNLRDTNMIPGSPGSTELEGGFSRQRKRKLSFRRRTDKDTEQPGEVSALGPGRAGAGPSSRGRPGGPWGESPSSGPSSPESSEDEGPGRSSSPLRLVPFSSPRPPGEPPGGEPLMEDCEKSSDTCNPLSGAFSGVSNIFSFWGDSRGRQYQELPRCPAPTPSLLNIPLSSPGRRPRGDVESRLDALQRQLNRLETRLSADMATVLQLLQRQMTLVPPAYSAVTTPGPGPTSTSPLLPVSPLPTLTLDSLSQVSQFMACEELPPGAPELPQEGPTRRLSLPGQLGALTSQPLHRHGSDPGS
row,Structure (SMILES),"hERG current change (%, negative = inhibition) at 1uM [%]"
1,CCc1cccc(NC(=O)Nc2ccc3c(c2)OCO3)c1,6.95
2,COc1ccc(NC(=O)C2C3CCC(C3)C2C(=O)O)cc1OC (stereo not shown),19.4
3,CCC(CC)c1nnc(NC(=O)C2CSC3(C)CCC(=O)N23)s1 (stereo not shown),5.98
4,O=C(O)c1cccc(N/N=C/c2ccc(F)c(F)c2)c1,7.69
5,Cc1ccc(F)cc1NC(=O)CSc1nc(Nc2ccccc2)nc(N2CCOCC2)n1,-4.37
6,Fc1ccc(C2=CC(c3ccco3)n3ncnc3N2)cc1 (stereo not shown),9.38
7,CCCn1c(N)c(N(CCOC)C(=O)c2ccc(-c3ccc(Cl)cc3)o2)c(=O)[nH]c1=O,8.21
8,O=C(c1cccs1)N(C(=O)c1cccs1)c1ccccn1,12.6
9,N#CC(c1ccccc1)c1cccc(Cl)n1 (stereo not shown),11.1
10,COc1ccc2nc(/N=C\N(C)C)sc2c1,-9.29
11,COc1ccccc1-c1nc(-c2cccc(C)c2)no1,4.46
12,CCN(C(=O)Cn1c(=O)n(-c2cc(OC)c(OC)c(OC)c2)c(=O)c2ccccc21)c1cccc(C)c1,7.47
13,COC(=O)C1=C(c2ccc(S(C)(=O)=O)cc2)C[C@@H]2CC[C@H]1N2C(=O)NC1CC1,17.4
14,O=C(Nc1ccc(N2CCN(C(=O)c3ccccc3)CC2)c(Cl)c1)c1ccco1,-4.71
15,Cc1ccc(-n2cc(CNC(C)Cc3cnccn3)c(-c3cccc(C)c3)n2)cc1 (stereo not shown),-33
16,CCOC(=O)/C(=N\Nc1cc(Cl)ccc1Cl)N1CCN(CC)CC1,14
17,O=C(Nc1ccc(S(=O)(=O)N2CCOCC2)cc1)c1cc(-c2cc(Cl)ccc2O)n[nH]1,4.43
18,CCOC(=O)c1cnn(-c2ncnc3c2cnn3C)c1N,7.44
19,Cc1ccc(S(=O)(=O)NC(C(=O)N2CCOCCOCCOCCOCC2)c2ccccc2)cc1 (stereo not shown),2.76
20,Cc1ccoc1C(=O)N1CCCCC1C(=O)O (stereo not shown),12.4
21,CCN(CC)C(=O)c1sc(NC(=O)c2c(OC)cccc2OC)c(C#N)c1C,2.18
22,O=c1[nH]nnc2c1sc1nc(N3CCOCC3)c3c(c12)CCCC3,1.15

row,Structure (SMILES),"hERG current change (%, negative = inhibition) at 1uM [%]"
1,Nc1cccc(NC(=O)c2cccs2)c1,4.63
2,CC1Cc2cc(/C(O)=C3/C(=O)C(=O)N(Cc4ccncc4)C3c3ccc(N(C)C)cc3)ccc2O1 (stereo not shown),13.2
3,Cc1ccc(S(=O)(=O)/N=C2\C=C(Nc3cccc(C(=O)O)c3)C(=O)c3ccccc32)c(C)c1,6.01
4,CC(=O)O.O=S(=O)(CCc1ccncc1)C1Cc2cccc3cccc1c23 (stereo not shown),-5.03
5,COc1ccc2ccccc2c1CNCc1ccc(C)cc1.O=C(O)C(=O)O,-18
6,Cc1ccc(C(=O)O)cc1NC(=O)c1cccs1,23.2
7,O=C(Nc1ccccc1Cl)c1c(F)c(F)c(F)c(F)c1F,-1.65
8,COc1ccc(N(CC(=O)Nc2cccc(C(F)(F)F)c2)S(=O)(=O)c2c(C)[nH]c(=O)[nH]c2=O)cc1,6.76
9,C(=N\N1CCN(c2ccccn2)CC1)/c1ccco1,10.3
10,O=C(O)c1cc2n(n1)CCN(Cc1ccccc1Cl)C2=O,12.2
11,CN(Cc1ccc(Cl)cc1Cl)C(=O)CNC(=O)c1ccco1,-3.38
12,Cc1oc2cc3oc(=O)c(CCC(=O)NCCN4CCOCC4)c(C)c3cc2c1C,6.83
13,O=C(NCCN1C(=O)S/C(=C\c2ccc(Cl)c(Cl)c2)C1=O)C1COc2ccccc2O1 (stereo not shown),-9.85
14,CC(Oc1ccc(Cl)cc1Cl)C(=O)N/N=C1\CCCc2ccccc21 (stereo not shown),7.93
15,CC(C)[C@@H](C(=O)NC1CCN(Cc2ccccc2)CC1)N1C(=O)N2CCc3c([nH]c4ccccc34)[C@@]2(C)C1=O,-4.75
16,COc1ccc(NC(=O)C(OC(=O)c2cnc(C)cn2)c2ccccc2)cc1Cl (stereo not shown),2.5
17,Cc1ccc(-n2ncc3c2CCCC3NC(=O)c2csnn2)cc1C (stereo not shown),2.61
18,NC(=O)NC(=O)COC(=O)/C=C/c1cccs1,8.64
19,CCOC(=O)c1ccc(N=c2sc(C(=O)OC)cc(=O)n2CCCN2CCOCC2)cc1,5.86
20,O=Nc1c(O)[nH]c2ccc(F)cc12,10.7
21,CC(=O)Nc1ccc(C2=NNC(=NCC3CCCO3)SC2)cc1 (stereo not shown),13.5
22,Cc1ccc(-c2nn(-c3ccccc3)cc2C(=O)Nc2cccc(S(=O)(=O)N3CCOCC3)c2)cc1,5.13

row,Structure (SMILES),"hERG current change (%, negative = inhibition) at 1uM [%]"
1,O=C(CSc1nnc2sc3ccccc3n12)c1ccco1,1.81
2,Cc1cc(CNC(=O)c2ccc3oc(C(C)C)nc3c2)nn1C,7.41
3,O=C(Cc1ccccc1)N1CCN(S(=O)(=O)c2cccc([N+](=O)[O-])c2)CC1,-5.66
4,Cc1cc(NC(=O)c2ccc(N(C)S(=O)(=O)c3ccccc3)cc2)no1,-5.75
5,COC(=O)c1ccc2c(c1)NC(=O)C(N1CCOCC1)S2 (stereo not shown),-8.8
6,Cc1ccc(C(=O)OCC(=O)c2ccc[nH]2)s1,5.27
7,Cc1ccnc(NC(=O)CCC(=O)N(CC(=O)NC2CCCCC2)C2CCCC2)c1,10.2
8,COC(CNC(=O)c1ccc(N2CCc3ccccc32)c([N+](=O)[O-])c1)OC,4.03
9,CN(/N=C/Cc1nnnn1-c1ccc(Cl)cc1)c1ccccc1,10.5
10,Cc1ccnc(NCc2cc(C)ccc2O)c1,21.6
11,COc1ccc(S(=O)(=O)NCC2CCCN(C(=O)c3cccnc3)C2)cc1 (stereo not shown),11.3
12,Nc1n[nH]c(C2CC2)c1N=Nc1ccc(Cl)c(Cl)c1,10.6
13,CC(C)C(=O)Nc1ccc(S(=O)(=O)N2CC3CC(C2)c2cccc(=O)n2C3)cc1 (stereo not shown),3.49
14,CCOC(=O)N1CCN(c2c(N3CCN(c4ccccn4)CC3)c(=O)c2=O)CC1,0.525
15,CCCc1cc(C(=O)N2CCN(c3ccccc3C)CC2)cs1,-3.95
16,CCCN(CCC)C(=O)/C=C/c1cccc([N+](=O)[O-])c1,4.04
17,Clc1ccc(OCc2cnc(Cl)s2)cc1,8.98
18,CCOC(=O)c1c(/N=C/C2=C(O)CC(C)(C)CC2=O)sc(C(C)=O)c1C,0.934
19,COc1cc(/C=C/C(=O)c2ccc3c(c2)OCCO3)cc(Br)c1OCC(=O)N(C)C,13.9
20,Cc1cccc(OCc2nc(C#N)c(N3CCCC3)o2)c1,11.8
21,Cc1ccnn1CC(=O)N/N=C/c1cn[nH]c1-c1ccc(F)cc1,8.69
22,O=C(O)C1SCCN1S(=O)(=O)c1ccc2ccccc2c1 (stereo not shown),11.5

row,Structure (SMILES),"hERG current change (%, negative = inhibition) at 1uM [%]"
1,CCC(=Nc1ccc2c(c1)CCC2)c1c(O)n(-c2ccc(OC)cc2)c(=O)[nH]c1=O,8.84
2,Cc1coc2c1c(C)cc1oc(=O)c(CC(=O)N[C@@H](C)C(=O)O)c(C)c12,11.6
3,Cc1cc(-n2c(C)cc(C(=O)COc3cc(F)ccc3[N+](=O)[O-])c2C)no1,11.7
4,COc1cc(OC)cc(-c2nnc(SCC(=O)N3CCCCC3)o2)c1,-0.147
5,Cn1c(SCc2ccccc2Cl)nc(C(F)(F)F)cc1=O,6.63
6,O=[N+]([O-])c1ccc(Sc2nccn2Cc2ccccc2)c([N+](=O)[O-])c1,-4.2
7,COc1ccc2[nH]c(=O)c(CN(CC3CCCO3)S(=O)(=O)c3ccccc3)cc2c1 (stereo not shown),8.06
8,COc1ccc(OCC(=O)Nc2sc3c(c2C(=O)NCC2CCCO2)CCC3)cc1 (stereo not shown),8.63
9,CCC1=NN2C(=N)/C(=C\c3ccc(OCCOc4ccccc4)c(OC)c3)C(=O)N=C2S1,13
10,COc1ccccc1OCCC(=O)Nc1cccc(S(=O)(=O)N2CCOCC2)c1,11.7
11,CN(C)N(Cc1ccccc1)C(=O)C(O)(c1ccccc1)c1ccccc1,21
12,CC[C@H](C)[C@H](NS(=O)(=O)c1ccc(C)cc1)C(=O)N1CCC(C(=O)N[C@H](C(=O)O)C(C)C)CC1,-13.6
13,CCC1(CC)C(=O)C2=C3C1[C@H](C(=O)OC)CC(C(=O)OC)C[C@H]3[C@H]1C(=O)N(c3ccccc3)C(=O)[C@H]1[C@H]2C (stereo partly shown),9.42
14,CCOc1cc(S(=O)(=O)NCc2cccs2)ccc1Cl,8.87
15,COc1ccc(CCn2nnc(-c3ccc(NC(C)=O)c(Cl)c3)n2)cc1,10.7
16,COc1ccc(N2C(=O)/C(=C/c3cc(C)n(-c4ccc(C)cn4)c3C)C(=O)NC2=S)c(OC)c1,9.98
17,COc1cc(/C=N/NC(=O)c2nc3ccccn3c2C)cc(OC)c1O,7.34
18,CSc1ccc(Cl)c(C(=O)Nc2nccs2)c1,6.39
19,CCc1ccc(/C=N/NC(=O)c2nnn(-c3nonc3N)c2C(C)C)cc1,20.8
